# Some of the results follow.
# Tests used:
# Experiment in all cases: glycan array binding signal (z-score within array); higher = stronger binding
# Details in all cases: glycan notation: IUPAC condensed, linker removed; mutation: K348A
# [1] = target: Fuc(a1-3)[Gal(b1-4)]GlcNAc(b1-2)Man(a1-6)[Gal(b1-4)GlcNAc(b1-2)Man(a1-3)]Man(b1-4)GlcNAc(b1-4)GlcNAc
# Summary of the method: (§1)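 Glycan array data came from 3228 arrays in the Consortium for Functional Glycomics database, and only arrays with an available protein sequence were kept. Glycan names were put into IUPAC-condensed notation, and columns mapping to the same glycan were averaged. The binding signal is a within-array Z-score, averaged across arrays of one protein sequence run at different concentrations or buffers and across linkers. A negative Z-score can be read as non-binding.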
# [2] = target: Fuc(a1-3)[Gal(b1-4)]GlcNAc(b1-3)Gal(b1-3)[Fuc(a1-4)]GlcNAc
# Summary of the method: as §1
# [3] = target: Fuc(a1-3)[Gal(b1-4)]GlcNAc(b1-4)Gal(b1-4)[Fuc(a1-3)]GlcNAc
# Summary of the method: as §1
# [4] = target: Fuc(a1-3)[Gal(b1-4)]GlcNAc(b1-4)Gal(b1-4)[Fuc(a1-3)]GlcNAc(b1-4)Gal(b1-4)[Fuc(a1-3)]GlcNAc
# Summary of the method: as §1
# [5] = target: Fuc(a1-3)[Gal(b1-4)]GlcNAc6S
# Summary of the method: as §1
# [6] = target: Fuc(a1-3)[Gal3S(b1-4)]Glc6S
# Summary of the method: as §1
# [7] = target: Fuc(a1-3)[Gal3S(b1-4)]GlcNAc
# Summary of the method: as §1
# [8] = target: Fuc(a1-3)[Gal3S(b1-4)]GlcNAc6S
# Summary of the method: as §1
# [9] = target: Fuc(a1-3)[GalNAc(b1-4)]GlcNAc
# Summary of the method: as §1
# Fuc(a1-4)GlcNAc = target: Fuc(a1-4)GlcNAc
# Summary of the method: as §1
# Fuc(b1-3)GlcNAc = target: Fuc(b1-3)GlcNAc
# Summary of the method: as §1
# Gal(a1-2)Gal = target: Gal(a1-2)Gal
# Summary of the method: as §1
# Gal(a1-3)Gal = target: Gal(a1-3)Gal
# Summary of the method: as §1
# Gal(a1-3)Gal(b1-3)GlcNAc = target: Gal(a1-3)Gal(b1-3)GlcNAc
# Summary of the method: as §1
# Gal(a1-3)Gal(b1-4)Glc = target: Gal(a1-3)Gal(b1-4)Glc
# Summary of the method: as §1
# Gal(a1-3)Gal(b1-4)GlcNAc = target: Gal(a1-3)Gal(b1-4)GlcNAc
# Summary of the method: as §1
# [10] = target: Gal(a1-3)Gal(b1-4)[Fuc(a1-3)]GlcNAc
# Summary of the method: as §1
# Gal(a1-3)GalNAc = target: Gal(a1-3)GalNAc
# Summary of the method: as §1
# [11] = target: Gal(a1-3)[Gal(a1-4)]Gal(b1-4)GlcNAc
# Summary of the method: as §1
# Gal(a1-4)Gal(b1-4)Glc = target: Gal(a1-4)Gal(b1-4)Glc
# Summary of the method: as §1
# Gal(a1-4)Gal(b1-4)GlcNAc = target: Gal(a1-4)Gal(b1-4)GlcNAc
# Summary of the method: as §1
# Gal(a1-4)GlcNAc = target: Gal(a1-4)GlcNAc
# Summary of the method: as §1
# Gal(a1-6)Glc = target: Gal(a1-6)Glc
# Summary of the method: as §1
# Gal(b1-2)Gal = target: Gal(b1-2)Gal
# Summary of the method: as §1
# Gal(b1-3)Gal = target: Gal(b1-3)Gal
# Summary of the method: as §1
# Gal(b1-3)Gal(b1-4)GlcNAc = target: Gal(b1-3)Gal(b1-4)GlcNAc
# Summary of the method: as §1
# Gal(b1-3)GalNAc = target: Gal(b1-3)GalNAc
# Summary of the method: as §1
# [12] = target: Gal(b1-3)GalNAc(b1-3)Gal(a1-4)Gal(b1-4)Glc
# Summary of the method: as §1
# [13] = target: Gal(b1-3)GalNAc(b1-4)Gal(b1-4)Glc
# Summary of the method: as §1
# [14] = target: Gal(b1-3)GalNAc(b1-4)[Neu5Ac(a2-3)]Gal(b1-4)Glc
# Summary of the method: as §1
# Gal(b1-3)GlcNAc = target: Gal(b1-3)GlcNAc
# Summary of the method: as §1
# [15] = target: Gal(b1-3)GlcNAc(b1-2)Man(a1-3)[Gal(b1-3)GlcNAc(b1-2)Man(a1-6)]Man(b1-4)GlcNAc(b1-4)GlcNAc
# Summary of the method: as §1
# [16] = target: Gal(b1-3)GlcNAc(b1-3)Gal(b1-3)GlcNAc
# Summary of the method: as §1
# [17] = target: Gal(b1-3)GlcNAc(b1-3)Gal(b1-4)Glc
# Summary of the method: as §1
# [18] = target: Gal(b1-3)GlcNAc(b1-3)Gal(b1-4)GlcNAc
# Summary of the method: as §1
# [19] = target: Gal(b1-3)[Fuc(a1-4)]GlcNAc
# Summary of the method: as §1
# [20] = target: Gal(b1-3)[Fuc(a1-4)]GlcNAc(b1-3)Gal(b1-3)[Fuc(a1-4)]GlcNAc
# Summary of the method: as §1
# [21] = target: Gal(b1-3)[Fuc(a1-4)]GlcNAc(b1-3)Gal(b1-4)GlcNAc
# Summary of the method: as §1
binder,measurement,setting,value
Surfactant Protein D (Human); Neck + Carbohydrate Recognition Domain (NCRD) (Homo sapiens) (protein) MLLFLLSALVLLTQPLGYLEAEMKTYSHRTMPSACTLVMCSSVESGLPGRDRDGREGPRGEKGDPGLPGAAGQAGMPGQAGPVGPKGDNGSVGEPGPKGDTGPSGPPGPPGVPGPAGREGALGKQGNIGPQGKPGPKGEAGPKGEVGAPGMQGSAGARGLAGPKGERGVPGERGVPGNTGAAGSAGAMGPQGSPGARGPPGLKGDKGIPGDKGAKGESGLPDVASLRQQVEALQGQVQHLQAAFSQYKKVELFPNGQSVGEKIFKTAQFVKPFTEAQLLCTQAGGQLASPRSAAENAALQQLVVAKNEAAFLSMTDSKTEGKFTYPTGESLVYSNWAPGEPNDDGGSEDCVEIFTNGKWNDRACGEARLVVCEF,glycan array binding signal (z-score),[1],-0.164
same,glycan array binding signal (z-score),[2],-0.173
same,glycan array binding signal (z-score),[3],-0.134
same,glycan array binding signal (z-score),[4],-0.176
same,glycan array binding signal (z-score),[5],-0.17
same,glycan array binding signal (z-score),[6],-0.112
same,glycan array binding signal (z-score),[7],-0.166
same,glycan array binding signal (z-score),[8],-0.148
same,glycan array binding signal (z-score),[9],-0.144
same,glycan array binding signal (z-score),Fuc(a1-4)GlcNAc,-0.169
same,glycan array binding signal (z-score),Fuc(b1-3)GlcNAc,-0.172
same,glycan array binding signal (z-score),Gal(a1-2)Gal,-0.177
same,glycan array binding signal (z-score),Gal(a1-3)Gal,-0.111
same,glycan array binding signal (z-score),Gal(a1-3)Gal(b1-3)GlcNAc,-0.173
same,glycan array binding signal (z-score),Gal(a1-3)Gal(b1-4)Glc,-0.173
same,glycan array binding signal (z-score),Gal(a1-3)Gal(b1-4)GlcNAc,-0.177
same,glycan array binding signal (z-score),[10],-0.16
same,glycan array binding signal (z-score),Gal(a1-3)GalNAc,-0.169
same,glycan array binding signal (z-score),[11],-0.174
same,glycan array binding signal (z-score),Gal(a1-4)Gal(b1-4)Glc,-0.162
same,glycan array binding signal (z-score),Gal(a1-4)Gal(b1-4)GlcNAc,-0.173
same,glycan array binding signal (z-score),Gal(a1-4)GlcNAc,-0.116
same,glycan array binding signal (z-score),Gal(a1-6)Glc,-0.165
same,glycan array binding signal (z-score),Gal(b1-2)Gal,-0.167
same,glycan array binding signal (z-score),Gal(b1-3)Gal,-0.175
same,glycan array binding signal (z-score),Gal(b1-3)Gal(b1-4)GlcNAc,-0.174
same,glycan array binding signal (z-score),Gal(b1-3)GalNAc,-0.174
same,glycan array binding signal (z-score),[12],-0.165
same,glycan array binding signal (z-score),[13],-0.177
same,glycan array binding signal (z-score),[14],-0.177
same,glycan array binding signal (z-score),Gal(b1-3)GlcNAc,-0.156
same,glycan array binding signal (z-score),[15],-0.178
same,glycan array binding signal (z-score),[16],-0.161
same,glycan array binding signal (z-score),[17],-0.166
same,glycan array binding signal (z-score),[18],-0.168
same,glycan array binding signal (z-score),[19],-0.165
same,glycan array binding signal (z-score),[20],-0.159
same,glycan array binding signal (z-score),[21],-0.17
